Assay results reported in PubChem BioAssay AID1508624 (National Center for Advancing Translational Sciences (NCATS), 2021).
Hit rate of the full screen: of about 48,000 compounds, about 120 (0.25%) were called active. Another 4% or so got no clear call; they are omitted. Calls follow the shape of the dose curve; as a rule, active = well fitted activation curve with a large enough effect; inconclusive = small, poorly fitted or top-dose-only effect, or another doubt; inactive = no such curve, though single readings can be large or run the other way. The list shows a part of the results.

Experiment: Primary qHTS for Identification of Small Molecule Activators of Huntingtin-Antisense Promoter Activity; also: nearly all actives have a fitted effect of over 55% in size
Settings: HEK293 HTT-AS promoter firefly luciferase reporter, 24 h; series mostly up to 57.5 µM; activity change, positive = activation: at the top concentration
Method in brief: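 HEK293 Fluc reporter, 2,500 cells/well, 24 h pre-culture; cpds up to 57.5 uM final, 24 h 37 degrees C; Dual-Glo, 10 min RT; normalized vehicle = 0%, zero RLU = -100%.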

Activity change, positive = activation, inactive:
CCCn1c(-c2cccc(Br)c2)nc2ccccc21 -4.92%, Cn1ncc(C(=O)N2CCN(c3ccc(F)cc3)CC2)c1C1CCN(C(=O)OC(C)(C)C)CC1 -12.3%, CCCN1C(=O)C(Cc2nc3ccccc3c(=O)n2-c2cccc(C)c2)c2ccccc21 (stereo not given) -10.4%, O=C(NCCOCCn1c(=O)oc2ccccc21)Nc1ccc(F)cc1 -5.45%, COc1ccc(OCC(=O)Nc2cccc(-c3nc4ccccc4s3)c2C)cc1 -36.2%, Cc1nc(N2CCCC2)ncc1C(=O)Nc1ccc(F)cc1F 21.5%, COc1ccccc1OCC(=O)Nc1nc(-c2ccc(Br)cc2)ns1 -4.67%, CC(C)N(Cc1ccccc1)C(=O)CCS(=O)(=O)c1ccc2c(c1)oc(=O)n2C -9.84% [at 11.5 µM, percent change from vehicle, -100% = no light], Cc1ccc(NC(=O)C2CCN(S(=O)(=O)c3c(C)noc3/C=C/c3ccco3)CC2)cc1C -24.1%, Cc1ccc(S(=O)(=O)c2cn(C)c3cc(N4CCCC(C)C4)c(F)cc3c2=O)c(C)c1 (stereo not given) -27%, Cc1cc2c(cc1S(=O)(=O)N(CCN(C)C)Cc1ccco1)OCC(=O)N2 -5.73%, Cc1ccc(Cn2c(C)c(CNCCCc3ccccc3)c(C(=O)O)c2C)cc1 -15%, CC1CCN(S(=O)(=O)c2ccc3c(c2)CCC(=O)N3CC(=O)Nc2cccc(C#N)c2)CC1 -16.4%, CCCCNC(=O)CSc1nnc(C)c2c(C)n(-c3ccccc3)nc12 -31.1%, Cc1ccc(-c2noc(CNC(=O)c3ccccc3)n2)cc1 -15.9%, CCC1CN(C(=O)N2CCC(C(=O)NCc3ccccc3C)CC2)c2ccccc2O1 (stereo not given) -26.5%, Cc1ccc(-c2cc3c(n2-c2ccc(C)cc2)CC(C)(C)CC3=O)cc1 -13.4%, Cc1ccc(C2=NN(CC(=O)NCCN(CC(C)C)CC(C)C)C(=O)CC2)cc1 -12%, CC(C)NC(=O)C1CCN(c2nc3ccccc3nc2C(F)(F)F)CC1 -7.39%, CCCCCCCCCCCC[N+](C)(C)Cc1ccccc1 9.53%, O=C(NCc1ccccc1)c1ccc(CSc2nc3cccnc3n2Cc2ccccc2F)cc1 -26%, O=c1c(O)c(-c2ccc(O)cc2O)oc2cc(O)cc(O)c12 -6.69%, N#Cc1ccc(CSc2nc3c(c(=O)[nH]2)CCCC3)cc1 -6.24%, CC(C)Sc1ncc(Cl)c(C(=O)Nc2ccc(S(=O)(=O)N(C)c3ccccc3)cc2)n1 -6.25%, Fc1ccc2ncc3c(-c4ccccc4)n[nH]c3c2c1 -6.12%, COC(=O)CCn1cnc2onc(-c3cc(F)cc(F)c3)c2c1=O -10%, Cc1ccc(C)c(CS(=O)(=O)c2cn(CC(=O)N(C(C)C)C(C)C)c3ccccc23)c1 -20.5%, Cn1ncc2c(Nc3cccc(F)c3)ncnc21 -3.45%, O=C(Nc1c(C(=O)Nc2ccccc2F)oc2ccccc12)c1cc2ccccc2o1 4.25%, COc1ccc(C2CNC(=O)C2)cc1OC1CCCC1 (stereo not given) -12.8%, COc1cc(C(CC(=O)NCCC(C)C)N2Cc3ccccc3C2=O)cc(OC)c1OC (stereo not given) -16.9%, COc1cc(NC(=O)CN2CCN(CC(=O)Nc3ccc(F)cc3)CC2)cc(OC)c1 -16.1%, Cc1c(Cl)cccc1NC(=O)Cn1cnc2nc3c(cc2c1=O)CCCC3 -10.6%, Cc1ccc(-n2ncc3c(N4CCC(Cc5ccccc5)CC4)ncnc32)cc1 -50.8%, O=C(c1ccc2c(c1)N(Cc1ccccc1F)C(=O)c1ccccc1S2=O)N1CCOCC1 (stereo not given) -23.2%, CC(C)(C)CC(=O)NC1CC(=O)N(c2ccc3c(c2)OCCO3)C1 (stereo not given) -24%, Cc1ccc2c(c1)cc1c(=O)n(CC(=O)N3CCCCC3)nc(C)n12 -10.4%, Cc1cccc(N(C)C(=O)CSc2nc3ncccc3o2)c1 -7.69%, CCc1ccc(C(=O)c2cn(CC(=O)Nc3ccc(C)c(C)c3)c3ccccc3c2=O)cc1 -39.7%, CCCCCN=C(N)NN=Cc1c[nH]c2ccc(OC)cc12 -27.5%, COc1ccc2c(c1)c1c(c(=O)n(-c3ccccc3)c(=O)n1CC(=O)Nc1ccc(C)c(C)c1)n2C -19.9%, CN(Cc1ccccc1)S(=O)(=O)c1nnc(NC(=O)c2ccccc2)s1 -12.8%, CCOc1ccc2c(c1)NC(c1cccs1)=NC(c1ccc(F)cc1)=N2 24.7%, CCN(c1ccccc1)c1nnc(NC(=O)Nc2ccc(Br)cc2F)s1 -0.621%, O=C(Nc1ccc(Br)cc1F)N1CCC2(CC1)Oc1ccccc1C(=O)N2Cc1ccccc1F -5.63%, COc1ccc(C2C(C(=O)Nc3ccc(C)cc3C)=C(C)Nc3nc4ccccc4n32)c(OC)c1 (stereo not given) -29.9%, COc1ccc2occ(CC(=O)Nc3ccc(S(=O)(=O)Nc4nc(C)cc(C)n4)cc3)c2c1 -10.2%, O=C1CSC2(C(=O)N(Cc3ccccc3)c3ccccc32)N1c1ccc(Cl)cc1 (stereo not given) -5.69%, CCC(C)NC(=O)C1=CC(c2ccc3c(c2)OCO3)=NS(=O)(=O)N1C (stereo not given) -13.7%, COC(=O)c1cc(NC(=O)Cn2nc(-c3ccc(C)c(C)c3)ccc2=O)cc(C(=O)OC)c1 -5.7%, CC(C)(C)c1ccc(C(=O)N2CCCCC2CCN2CCCCC2)cc1 (stereo not given) -13.3%, COc1cccc2c1Oc1ncccc1N(C(=O)CCC(=O)NCc1ccccc1Cl)C2 -12.4%, O=C(CN1C(=O)COc2ccc(S(=O)(=O)Nc3ccccc3)cc21)Nc1cccc(Cl)c1 -25.6%, Cc1cc(C)cc(NS(=O)(=O)c2ccc3[nH]cc(C(=O)NCc4ccccc4Cl)c(=O)c3c2)c1 -49.2%, CC(=O)Nc1nc(C)c(-c2ccc(Cl)c(S(=O)(=O)NCCO)c2)s1 -34.6%, COc1cc(NC(=O)Cn2c(=O)n(Cc3ccco3)c(=O)c3oc4ccccc4c32)cc(OC)c1 -16%, Cc1ccc(-c2nc(Cn3c(=O)cc(-c4ccccc4)c4c(C)nn(C)c43)c(C)o2)cc1 -1.89%, Cc1ccc(OCCn2nnc3sc4c(c3c2=O)CCC(C)C4)cc1 (stereo not given) 2.7%, CCOc1ccc(C(=O)N2CCC(c3noc(-c4ccc(S(=O)(=O)N5CCCC5)cc4)n3)CC2)cc1 -35.7%, CN(C1CCCCC1)S(=O)(=O)c1ccc2c(c1)c(=O)c(C(=O)N1CCN(c3ccccc3F)CC1)cn2C 2.08%, CCc1c(-c2ccccc2)nc2ccccc2c1C(=O)NCc1ccc(C)cc1 -40.3%, CCOc1ccc(NC(=O)c2cc(=O)c3ccc(C)c(C)c3o2)cc1 0.754% [at 11.5 µM, percent change from vehicle, -100% = no light], Cn1cnc(S(=O)(=O)N2CCC(C(=O)N3CCN(c4ccccc4F)CC3)CC2)c1 0.4%, CSc1cccc(NS(=O)(=O)c2cn(C)c(C)n2)c1 -8.78%, Cc1cc2c(cc1S(=O)(=O)CCC(=O)NCCc1ccccc1)OCC(=O)N2 -7.6%, CCC1CN(C(=O)Nc2ccc(C)c(F)c2)c2ccccc2S1 (stereo not given) 2.51%, O=C1CN(C(=O)c2ccc(S(=O)(=O)N3CCCC3)cc2)C(c2ccccc2)c2cc(Br)ccc2N1 (stereo not given) -20.8%, CCOc1ccc(-c2nnc(SCC(=O)NCc3ccccc3)o2)cc1 -40.1%, Cc1ccc(NC(=O)CN2CCSc3ccc(S(=O)(=O)N4CCCC4)cc32)cc1C -34.4%, CC(C)(C)C(=O)NC1(C(F)(F)F)C(=O)Nc2c1c(=O)[nH]c(=O)n2-c1ccccc1 (stereo not given) -7.03%, COc1cc(OC)c(NS(=O)(=O)c2cc(-c3cnc(C4CC4)o3)ccc2C)cc1Cl -26.3%, Cc1nnc(N2CCC(C(=O)NCCc3ccccc3)CC2)c2nn(-c3ccc(Cl)cc3)c(C)c12 -21.9%, CCOc1ccc(-n2nc3cc(C)c(NC(=O)c4cc(OCC)c(OCC)c(OCC)c4)cc3n2)cc1 9.14%, CCOc1ccc(-c2cc(-c3nc(-c4ccc(OC)c(OC)c4)no3)[nH]n2)cc1 -13.6%, Cc1ccccc1CSc1ncc(CO)n1Cc1ccc(F)cc1 -7.95%, COc1ccc(Cc2nc3ccccc3n2Cc2ccccc2F)cc1 -27.8%, CC(=O)c1ccc(NC(=O)CC(c2cccs2)N2Cc3ccccc3C2=O)cc1 (stereo not given) -0.394%, CCN(C(=O)Cn1cnc2sc(C)c(S(=O)(=O)N3CCN(c4ncccn4)CC3)c2c1=O)c1ccccc1F -8.2%, COc1ccc(-c2cn3cccnc3n2)cc1NC(=O)c1cc(C)cc(C)c1 -25%, Cc1cc(Cl)ccc1OCC(=O)N(Cc1ccco1)Cc1ccco1 -13.1%, Cc1ccc(-n2ncc(C(=O)N3CCN(c4ccc(Cl)cc4)CC3)c2C2CCN(C(=O)OC(C)(C)C)CC2)c(C)c1 3.36%, COc1ccc(-c2nnc(C3CCN(S(=O)(=O)c4ccc(C)c(C)c4)CC3)o2)cc1 -29.9%, CC(O)CNc1nc2c(c(=O)n(Cc3ccc(Cl)cc3)c(=O)n2C)n1C (stereo not given) -12.7%, CCOC(=O)c1ccc(NC(=O)c2ccc(=O)n(Cc3cccc(C)c3)c2)cc1 -42.2%, CCOCCCN(Cc1ccco1)S(=O)(=O)c1cc2c(cc1C)NC(=O)CO2 -16.4%, COc1ccc(-n2ncc(C(=O)Nc3cccc(C(F)(F)F)c3)c2C2CCN(C(=O)OC(C)(C)C)CC2)cc1 -25.6%, COc1ccc(N2Cc3cccc(C(=O)Nc4ccc(F)cc4)c3C2=O)cc1 -17.9%, CCN1CCCC1CN (stereo not given) -4.92%, O=C(Nc1c(C(=O)N2CCN(c3ccccc3)CC2)oc2ccccc12)c1ccco1 -11.4%, CC(C)C(=O)NCC(c1ccc2c(c1)OCO2)N1CCN(c2ccccc2)CC1 (stereo not given) -19.6%, Cc1c(C(=O)NCCc2ccc(Cl)cc2)sc2nc3n(c(=O)c12)CCCC3 -1.33%, Cc1ccccc1CN1c2ccccc2-c2nc(SCC(=O)NCc3ccccc3)ncc2S1(=O)=O -8.51%, CCN(CC)c1ccc(NC(=O)c2sc3nc4c(cc3c2N)CN(C)CC4)cc1 -11.2%, CCn1c(C(=O)N2CCCC(C(=O)N3CCN(c4cc(C)ccc4C)CC3)C2)cc2sccc21 (stereo not given) -42.4%, COc1cc(OC)c(OC)cc1CNc1sc2c(c1C(=O)Nc1ccccc1OC)CCC2 -14.9%
